Here are results for 2 compounds from PubChem BioAssay AID1963837 (Molecular Pharmacology Branch, DTP, NCI, 2024).

SMILES strings stand for the structures. A number of entries come with more than one value. The list is limited to them. The source may hold further records. Results that share an entry are repeated measurements in other runs, samples, wells, individuals or studies. Brackets with × give the number of equal values in this list.

For this experiment, the system named is 843126-344-R-J1-PDC complex spheroid viability. Nature of the experiment: Anticancer human tumor 843126-344-R-J1-PDC patient-derived melanoma cell line growth inhibition [POLQ]. Particulars: stronger effect = lower value. On the procedure:
Multicellular complex tumor spheroid response to Polymerase (POL) inhibitors (novobiocin, ART-558, RP6685) in combination with a variety of drugs and investigational agents in selected tumor cell lines
The POL inhibitors (novobiocin, ART-558, and RP6685) were evaluated both individually and in combination with standard of care and investigational anticancer small molecules within a complex spheroid model of solid tumors. . Complex spheroids include a stromal component modeled by human endothelial cells (HUVEC) and fibroblasts modeled by human mesenchymal stem cells (MSCs). The concentration ranges selected for each drug and investigational agent were based upon clinically achievable concentrations if the clinical Cmax of the agent was known.
Compounds. The drugs and investigational agents: novobiocin (NSC847541), ART-558 (NSC835418), RP-6685 (NSC848927), peposertib (NSC802822), ceralasertib (NSC780249), elimusertib (NSC800525), camonsertib (NSC841442), AZD-1390 (NSC803789), olaparib (NSC753686), talazoparib (NSC767125), rucaparib (NSC756644), sotorasib (NSC818433), MRTX-1133 (NSC836407), SN-38 (NSC673596), topotecan (NSC609699), epotoside (NSC141540), doxorubicin (NSC123127), gemcitabine (NSC613327), 5-fluorouracil (NSC19893), paclitaxel (NSC125973), vemurafenib (NSC761431), MSA-2 (NSC828583), SN-011 (NSC837082), adavosertib (NSC754352), prexasertib (NSC758257), carboplatin (NSC241240) and oxaliplatin (NSC266046), were obtained from the National Cancer Institute (NCI) Developmental Therapeutics Program Chemical Repository (21). The FDA-approved anticancer drug set is available from the Developmental Therapeutics Program at https://dtp.cancer.gov/organization/dscb/obtaining/. […] The stock solutions were prepared in dimethyl sulfoxide (DMSO, Sigma-Aldrich, St. Louis, MO, cat. D2650), except for the platinum compounds which were prepared in saline (Quality Biological, Gaithersburg, MD, cat. 114-055-101), at 800-fold the tested concentration and stored at -70 degrees C prior to their use. All drugs and investigational agents were tested over a range starting from a high concentration at or near the clinical Cmax and decreasing in half-log increments. If the clinical Cmax for an agent had not been determined, the highest concentration tested was 10 microM, except for SN-38, which was tested at a high concentration of 1 microM.
Cell Culture. All cells were maintained in an incubator at 37 degrees C and 5% CO2 with 95% humidity. The PDC lines were cultured according to standard operating procedures established by the NCI PDMR (https://pdmr.cancer.gov). Table 3 of the manuscript, lists the cell lines along with the number of the three cell types plated to form the mct-spheroids and media for tumor cell growth. After thawing, all PDC lines, except 997537-175-T-J1-PDC and 415267-285-R-J2-PDC, were cultured in Matrigel-coated flasks prepared with a working solution of 1X Ham's F-12 nutrient mix, without supplementation (Thermo Fisher Scientific, cat. 11765054), 100 U/mL penicillin-streptomycin (Thermo Fisher Scientific, cat. 15140122), and 2.5% Matrigel (Corning Inc., Corning, NY, cat. 354248) for the first three passages. The two PDC lines 997537-175-T-J1-PDC and 415267-285-R-J2-PDC were cultured on uncoated flasks. The 857933-349-R-J2-PDC line was cultured in 6C/Colon 1B media containing advanced DMEM/F-12 (Thermo Fisher Scientific, cat. 12634028), 10 mM HEPES (Thermo Fisher Scientific, cat. 15630080), 1X GlutaMAX supplement (Thermo Fisher Scientific, cat. 35050061), 0.1 mg/mL primocin (InvivoGen, San Diego, CA, cat. ant-pm-2), 10% defined fetal bovine serum, heat inactivated (HyClone Laboratories Inc., Logan, UT, cat. SH30070.03HI), 50% L-WRN conditioned media (ATCC, cat. CRL-3276), 1.25 mM N-Acetyl-L-cysteine (Sigma-Aldrich, cat. A9165), 10 mM nicotinamide (Sigma-Aldrich, cat. N0636), 1X B-27 supplement (Thermo Fisher Scientific, cat. 17504044), 1X N-2 supplement (Thermo Fisher Scientific, cat. […]
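Further: spheroids exposed to drugs for seven days before readout.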

Regarding `COC1C(OC(N)=O)C(O)C(Oc2ccc3c(O)c(NC(=O)c4ccc(O)c(CC=C(C)C)c4)c(=O)oc3c2C)OC1(C)C` (stereo not drawn), the viability, T/C was 95.2 (2×), 81.1, 105, 83.2, 98.8, 110, 77.5, 103, 96.1, 95.9, 94.6, 100% (compound alone 0.0316 µM); 107, 81.1, 96.3, 95.8, 105, 98.2 (2×), 88.9, 99.2, 80.9, 92.9, 111, 99.5% (compound alone 0.1 µM); 97, 94.2, 87.5 (2×), 92.1, 89.5, 101 (2×), 90.1, 80.8, 107, 114, 86.1% (compound alone 0.316 µM); 96.7, 107, 89.2, 97.6, 84.9, 100, 105, 85, 75, 88.8, 101, 81.7, 86.2% (compound alone 3.16 µM); 94, 73.4, 90.6, 92.4, 89.8, 89.2, 91.5, 82.3 (2×), 107, 94.3, 91.6, 83.4% (compound alone 10 µM).
Turning to `Cc1cccc(N(C)C(=O)C2C(O)CCN2c2nc(C)cc(C(F)(F)F)c2C#N)c1` (stereo not drawn), the viability, T/C is 98.2, 92 (2×), 89.4, 91.3, 91.9, 85.2, 100, 99, 118, 96.9, 96.6% (compound alone 0.0316 µM); 82.6, 94.6, 102 (2×), 91.7, 87.8, 109, 92.3, 104, 90.3, 105, 101% (compound alone 0.1 µM); 86.7, 80.6, 97.4, 72, 80.4, 76.3, 87.6, 100, 95.2, 82.8, 102, 91.5% (compound alone 3.16 µM).
